This data set has as its system ATP. The experiment in a line: switch fluorescence ratio, 500 uM ATP over buffer (Cy3 cluster intensity, sum of 5 cycles each) (fold (ratio)); higher = stronger signal-on switching upon ATP binding; sequences stand for … in TCGTCGGCAGCGTCAGATGTGTATAAGAGACAGTTTTTTTTTTTTTTTTTTTTTTTTT…TC. The conditions noted are these: aptamer strand: ATP DNA aptamer (quencher-CACCTGGGGGAGTATTGCGGAGGAAGG + anchor), 100 nM annealed; ATP concentration: 500 uM; one replicate. The method in brief:
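The fluorescence ratio divides summed target-cycle Cy3 intensity by summed buffer-cycle Cy3 intensity for each cluster and is averaged per switch-domain sequence. Cy3-labelled switching-strand clusters on a modified Illumina MiSeq flow-cell were annealed to 100 nM quencher-labelled ATP aptamer, then imaged in selection buffer and again after 15 min with 500 uM ATP at 22 °C. Five such cycles were run, with NaOH stripping and re-annealing between them, and clusters outside 100-1000 RFU were excluded.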

Values marked as one replicate rest on one cluster of the flow cell; about a third of the high ones do not repeat.
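Note: ATP exposure 15 min at 22 °C before imaging.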

CGGTGGCCTA: the switch fluorescence ratio was found to be 1.02. For the sequence GATGATAAGT, the switch fluorescence ratio was determined as 1.04. With AATCGGATTT the figure was 1.04; with AAAAGGTCGG, 0.942; with AAATCGTGAA, 1.

With TATCTGGTGG, the switch fluorescence ratio was 1.03. Next, TAATTTAGC: 1.06; CTGGTCTACT: 1; GAATGTCATC: 0.972. As for ATTGGATCGT, the switch fluorescence ratio was 0.984.

Turning to AGAGTCGGCC, the switch fluorescence ratio turned out to be 0.991. Next, GGTGACAGAG: 0.954; TGTGTGTGCG: 1.06; CGGCGTATGC: 1. With GGTCGATGTA the figure was 0.931; with ATAGGATAAG, 0.989; with GAGTATCCAA, 1.01. With GCCTGGGGA the figure was 1.04; with TGTTCGTTGT, 1.01. With TTATTTGTC, the switch fluorescence ratio worked out at 0.995. Next, AATCTAGGGG: 0.999. In the case of GTTGCGATGT, the switch fluorescence ratio came out at 1.03. With CGTGATTTCT the figure was 0.957; with AGACTGTGG, 0.968; with TAAGAGGGAA, 1.03.

For GACCGCGTCT, the switch fluorescence ratio is 1.06. Turning to ACGTAATGTG, the switch fluorescence ratio came to 1.13.

On to CTAACGTTTT, for which the switch fluorescence ratio stood at 0.963. With TCCTGATTCG the figure was 1.03; with TCTGGTTCTA, 0.96; with GGATACTAAA, 1.04.

With GTAATCCCAC, the switch fluorescence ratio was 1.05.

Turning to GAAGCACTAT, the switch fluorescence ratio came to 1.86.

In the case of AATTGCTCCT, the switch fluorescence ratio is 1.07.

As to CGTATTCATC, the switch fluorescence ratio is 0.982.

For TTCATAAAAT, the switch fluorescence ratio worked out at 1.07.

Regarding GTTGTGCACA, the switch fluorescence ratio was 0.997. As to GGGCGAAAGA, the switch fluorescence ratio worked out at 1.04. Regarding TGCACCAAGA, the switch fluorescence ratio was 1.03. For GATGGAACAG, the switch fluorescence ratio worked out at 1.01.

Regarding AATAGTCGGG, the switch fluorescence ratio was determined as 0.989. Next, TGAAAGTAAT: 1.02. Turning to TCAGTTGCGC, the switch fluorescence ratio worked out at 1.04.

As to TCATTGCGAA, the switch fluorescence ratio stood at 1.04. With CCCGTGCAA the figure was 1.15; with TCGGAGCGTC, 1.6.

With ATCGGTAAGG, the switch fluorescence ratio was determined as 1.01. With ATTCTAAACT the figure was 1.03; with CATACGTCCA, 1.14.

For the sequence GACTGCCGAG, the switch fluorescence ratio was 1.07. Next, CTTGGTGAGG: 0.979. Next, CGTTAGGGGT: 0.976; CTGATCACAA: 1.46; GTAAAGGACA: 1.27.

As to GAAGTTATAT, the switch fluorescence ratio is 0.99. For GCCATACAGC, the switch fluorescence ratio was 0.981.

Regarding GTAATTACAT, the switch fluorescence ratio was 1.01. With AGTTGTCGGC the figure was 0.975; with GCTTTTTCAT, 0.975.

TTGGTCTGG: the switch fluorescence ratio came out at 0.989. With CCCGTCTTGT, the switch fluorescence ratio was 1.01.

As to GGTAGCGTCA, the switch fluorescence ratio was 1. Consider TACGATTGGT, for which the switch fluorescence ratio was found to be 1. Next, CTCCTAGCAG: 2.6; TGGTCAAGAA: 1.01. With GCGAGGCGGT the figure was 1.08; with GGGAATCAAT, 1.01; with CATCCAGTCT, 1.29. As for GTCGCCAGGT, the switch fluorescence ratio is 1.06.

For TTTCAATTT, the switch fluorescence ratio worked out at 0.987. Turning to AAATCTCCAA, the switch fluorescence ratio is 0.955.

Take TGCTGTATCA: the switch fluorescence ratio is 1.02. On to AAGTCACGGG, for which the switch fluorescence ratio was determined as 1.01. Next, AAAAGTATTC: 0.965; CACACTTCTC: 1.03. For GTACTCAGGT, the switch fluorescence ratio was found to be 1.03. As for TCGGTCAAAA, the switch fluorescence ratio was 0.987. With ACTGGTGG the figure was 0.938. With ATGTGCAAAC the figure was 1.25; with TGTATGGTAC, 1.05; with TTCTTTGGTG, 0.991.

With TAAAACGCCA, the switch fluorescence ratio was 1.09.

TTCATGCCTT: the switch fluorescence ratio was found to be 0.955.

Regarding ACTGTTAACA, the switch fluorescence ratio turned out to be 1.1. With TGGGTCTTGT the figure was 1.01; with CAATAACACA, 1.15.

For the sequence ATCCCACCGT, the switch fluorescence ratio worked out at 1.08. CACCGGTACG: the switch fluorescence ratio was 1.

For the sequence CGTCAGCGAG, the switch fluorescence ratio is 1.16.

With GTCCGATTGT, the switch fluorescence ratio is 0.985.

TAGAAATTCT: the switch fluorescence ratio amounted to 1.04.

With AGACGAAAGG, the switch fluorescence ratio is 1.02. Next, GGTGTCAGCC: 0.954; TTCTTTCAGC: 1.02. Next, CAGGTTAGTA: 0.984; ACCGACCAGC: 2.11; TGTCGCGGCA: 1.

In the case of AGCAGATAAA, the switch fluorescence ratio worked out at 0.955. Consider ACATCAGTAA, for which the switch fluorescence ratio worked out at 0.986.

Consider CCGGATCGGT, for which the switch fluorescence ratio turned out to be 1.01. Next, TCCATTGGAG: 1.01; TTTAGTGGTC: 1.01; GGCGCAGTAA: 1.22. Next, AAGTCGAAAT: 1; GTAGGACGCT: 1.02; CATCGGGTCC: 1.02. Regarding GTGAGATTTG, the switch fluorescence ratio was 0.999.

TGAGAACCTG: the switch fluorescence ratio is 0.919. With GTTAGGTT the figure was 0.993; with AATGATATCC, 0.984.

As for CCGGTCTGGA, the switch fluorescence ratio turned out to be 0.942. On to ATCGGTCGCT, for which the switch fluorescence ratio worked out at 0.981.

CTGGCAAGGC: the switch fluorescence ratio was 1.17.

As to ACTACCAGTA, the switch fluorescence ratio stood at 1.02. Next, CCGAGAACAA: 5.18. With ATTTTCACCG, the switch fluorescence ratio was 1.05. For the sequence CGACAGGGGG, the switch fluorescence ratio was 1.01. With AAGTCTAGCT the figure was 1.01. With GGCTGTATCC the figure was 1; with TAAAAAGTGT, 1.02.
